Results: US20120294886A1, “PEPTIDE CONJUGATES FOR SUPPRESSING AN IMMUNE RESPONSE, METHODS OF MAKING AND USES THEREFOR” (The University of Queensland, priority 2011, published 2012)
At least one peptide structure holds a part that was inferred or is arguable (an end, a ring closure or a residue). Marks after values point to notes of the source that are not given here. Peptide text beside a SMILES is read from it. * marks the point of attachment. Palmitoyl = CCCCCCCCCCCCCCCC(=O)*

Legend:
[1] = system: SJL/J mice; assay: Induction of EAE by immunisation with peptide in complete Freund's adjuvant (Example 2); assay type: in vivo, mouse; conditions: for Incidence / Day of Onset: EAE; for Incidence / Score / Day of Onset: mice immunised with the peptide in CFA; for Incidence: followed for 6 weeks; for Score: clinical score of EAE; for Duration: duration of the first episode of disease
Protocol: In examples 2 and 4-8, PLP encephalitogenic epitopes were injected into SJL/J mice to induce EAE, so the mice could be used as an animal model for MS. Such a model has been used in numerous studies, including where preventative or treatment methods for MS are being investigated. The study described in Hofstetter et al., 2007, for example, describes the induction of EAE in SJL mice at pages 1373-1374.
Mice were immunised with the above non-palmitoylated, S-palmitoylated or N-palmitoylated peptides in complete Freund's adjuvant to induce EAE.
(1) Mice were followed for 6 weeks to determine the induction of EAE.

[2] = system: lymph node cells (LNC); assay: CD4/CD8 ratio of activated LNC by flow cytometry (Example 2); assay type: cell-based, mouse; conditions: activated LNC from immunised mice, 4 per group
Protocol: Lymph nodes from a different group of mice immunised in the same manner were removed 10 days after injection of the peptides and single cell suspensions of lymph node cells (LNC) were prepared.
(3) Other LNC were incubated with antibodies against CD4 or CD8, and the ratio of CD4 to CD8 was determined using flow cytometric techniques. LNC were centrifuged through a Ficoll gradient and washed with PBS containing 1% FCS and 0.01% sodium azide (wash buffer). Aliquots of 1 million cells were incubated with antibodies specific for CD4 (clone RM4-5; rat IgG2a) or CD8a (clone 53-6.7; rat IgG2a) together with an antibody specific for the TCR β-chain (H57-597; hamster IgG) for 30 min at 4° C. in the dark, followed by FITC-conjugate anti-rat κ-chain or PE-conjugated anti-hamster IgG for 30 min at 4° C. in the dark. Isotype-matched primary antibodies were used as controls. All antibodies were purchased from PharMingen (San Diego, Calif.) and were used at 1 μg/ml dilution in wash buffer. After washing, cells were resuspended in wash buffer and analysed using a FACSCalibur flow cytometer (Becton Dickinson, Franklin Lakes, N.J.).

[3] = system: CD4+CD25+ T regulatory cells; assay: Flow cytometric analysis of regulatory T cells in LNC of immunised mice (Example 8); assay type: cell-based, mouse
[4] = system: transcription factor FoxP3; assay: RT-PCR of RNA from LNC of immunised mice, FoxP3 (Example 8); assay type: cell-based, mouse; conditions: LNC stimulated with either APL or native peptide
[5] = system: Th2-related genes IL-10, IL-13 and GATA-3; assay: RT-PCR of RNA from LNC of immunised mice, Th2-related genes (Example 8); assay type: cell-based, mouse; conditions: LNC stimulated 4 hours with 20 μg/ml A188 or PLP178-191; versus control and A188-immunised mice
[6] = system: SJL/J mice; assay: Therapeutic treatment of established S-palm-PLP178-191-induced EAE (Example 7); assay type: in vivo, mouse; conditions: 100 μL of 1 mg/mL in PBS s.c. at score 2.0 or 2.5, followed for 7 days, versus PBS, FIG. 6
Protocol: SJL/J mice were injected subcutaneously with 100 μg S-palm-F188 (S-palm-PLP178-191), i.e. 100 μl of a 1 mg/ml solution emulsified in an equal volume (i.e. 100 μl Complete Freund's Adjuvant containing an extra 4 mg/mL Mycobacterium tuberculosis H37Ra. Each mouse also received 300 ng pertussis toxin intravenously on the same day as the peptide emulsion and then 3 days later.
The mice were then inspected and scored for disease using a 5 point severity scale: 0=no disease; 1=decreased tail tone; 2=no tail tone; 3=hind limb weakness; 4=hind limb paralysis; 5=moribund.
When the mice reached a score between 2.0 or 2.5, each mouse was injected subcutaneously with 100 μL PBS (n=6), 100 μL of 1 mg/mL A188 in PBS (n=6), or 100 μL of 1 mg/mL S-palm-A188 in PBS (n=7).
Mice were then followed for 7 days, and scored each day.

Structure (SMILES) | Incidence [1] | Score [1] | CD4/CD8 Ratio (mean ± SEM) [2] | Number of regulatory T cells in LNC ([3]; LNC from immunised mice, versus A188, FIG. 7) | Level of regulatory T cells upon stimulation ([3]; LNC stimulated 3 days with either A188 or PLP178-191, 20 μg/ml) | Baseline level of regulatory T cells ([3]; no antigen group) | Expression of FoxP3 [4] | Expression of IL-10, IL-13 and GATA-3 [5] | Mean EAE score after treatment [6] | Day of Onset [1] | Duration [1]
CCCCCCCCCCCCCCCC(=O)N[C@@H](CCCCN)C(=O)N[C@H](C(=O)N[C@H](C(=O)N[C@H](C(=O)N[C@@H](CS)C(=O)NCC(=O)N[C@@H](CCCCN)C(=O)NCC(=O)N[C@@H](CC(C)C)C(=O)N[C@@H](CO)C(=O)N[C@@H](C)C(=O)N[C@H](C(=O)N[C@H](C(=O)N[C@H](C(=O)O)[C@@H](C)O)C(C)C)[C@@H](C)O)[C@@H](C)CC)[C@@H](C)O)[C@@H](C)O [N-palm-PLP104-117, (palm)HN-KTTICGKGLSATVT] (Palmitoyl-KTTICGKGLSATVT-OH) | 0/4 | 0 | 2.07 ± 0.06^b |  |  |  |  |  |  |  | 
CCCCCCCCCCCCCCCC(=O)N[C@@H](Cc1c[nH]cn1)C(=O)N[C@@H](CS)C(=O)N[C@@H](CC(C)C)C(=O)NCC(=O)N[C@@H](CCCCN)C(=O)N[C@@H](Cc1c[nH]c2ccccc12)C(=O)N[C@@H](CC(C)C)C(=O)NCC(=O)N[C@@H](Cc1c[nH]cn1)C(=O)N1CCC[C@H]1C(=O)N[C@@H](CC(=O)O)C(=O)N[C@@H](CCCCN)C(=O)N[C@@H](Cc1ccccc1)C(=O)O [N-palm-PLP139-151, (palm)HN-HCLGKWLGHPDKF] | 0/4 | 0 | 1.96 ± 0.06 |  |  |  |  |  |  |  | 
CCCCCCCCCCCCCCCC(=O)SC[C@H](NC(=O)[C@@H](NC(=O)[C@@H](NC(=O)[C@H](Cc1c[nH]c2ccccc12)NC(=O)[C@@H](NC(=O)[C@@H](N)CC(N)=O)[C@@H](C)O)[C@@H](C)O)[C@@H](C)O)C(=O)N[C@@H](CCC(N)=O)C(=O)N[C@@H](CO)C(=O)N[C@H](C(=O)N[C@@H](C)C(=O)N[C@@H](C)C(=O)N1CCC[C@H]1C(=O)N[C@@H](CO)C(=O)N[C@@H](CCCCN)C(=O)O)[C@@H](C)CC [S-palm A188, H2N-NTWTTC(palm)QSIAAPSK-CO2H] (H-NTWTTC(Palmitoyl)QSIAAPSK-OH) |  |  |  | induces an increase in the number of regulatory cells | increased further | is increased | significantly upregulated | significant increases in expression | did not increase above the score that the mice were at when they were injected with the treatment |  | 
CCCCCCCCCCCCCCCC(=O)SC[C@H](NC(=O)[C@@H](NC(=O)[C@@H](NC(=O)[C@@H](NC(=O)[C@@H](N)CCCCN)[C@@H](C)O)[C@@H](C)O)[C@@H](C)CC)C(=O)NCC(=O)N[C@@H](CCCCN)C(=O)NCC(=O)N[C@@H](CC(C)C)C(=O)N[C@@H](CO)C(=O)N[C@@H](C)C(=O)N[C@H](C(=O)N[C@H](C(=O)N[C@H](C(=O)O)[C@@H](C)O)C(C)C)[C@@H](C)O [S-palm-PLP104-117, H2N-KTTIC(palm)GKGLSATVT-CO2H] (H-KTTIC(Palmitoyl)GKGLSATVT-OH) | 4/4 | 3.0 ± 0^ | 2.71 ± 0.16^a |  |  |  |  |  |  | 40.5 ± 29.9 days | 7.7 ± 0.5
CCCCCCCCCCCCCCCC(=O)SC[C@H](NC(=O)[C@@H](N)Cc1c[nH]cn1)C(=O)N[C@@H](CC(C)C)C(=O)NCC(=O)N[C@@H](CCCCN)C(=O)N[C@@H](Cc1c[nH]c2ccccc12)C(=O)N[C@@H](CC(C)C)C(=O)NCC(=O)N[C@@H](Cc1c[nH]cn1)C(=O)N1CCC[C@H]1C(=O)N[C@@H](CC(=O)O)C(=O)N[C@@H](CCCCN)C(=O)N[C@@H](Cc1ccccc1)C(=O)O [S-palm-PLP139-151, H2N-HC(palm)LGKWLGHPDKF-CO2H] | 4/4 | 4.3 ± 0.5 | 2.46 ± 0.08^c |  |  |  |  |  |  | 11.0 ± 0^ day | 12.8 ± 2.8^b
CCCCCCCCCCCCCCCC(=O)SC[C@H](NC(=O)[C@@H](NC(=O)[C@@H](NC(=O)[C@H](Cc1c[nH]c2ccccc12)NC(=O)[C@@H](NC(=O)[C@@H](N)CC(N)=O)[C@@H](C)O)[C@@H](C)O)[C@@H](C)O)C(=O)N[C@@H](CCC(N)=O)C(=O)N[C@@H](CO)C(=O)N[C@H](C(=O)N[C@@H](C)C(=O)N[C@@H](Cc1ccccc1)C(=O)N1CCC[C@H]1C(=O)N[C@@H](CO)C(=O)N[C@@H](CCCCN)C(=O)O)[C@@H](C)CC [S-palm-PLP178-191, H2N-NTWTTC(palm)QSIAFPSK-CO2H] (H-NTWTTC(Palmitoyl)QSIAFPSK-OH) | 5/5 | 3.5 ± 0.3 |  |  |  |  |  |  |  | 10.6 ± 0.5 days | 9.6 ± 1.0
